Out of some 410,000 compounds screened, about 7,200 (1.8%) were called active. Inconclusive means that the source gave no clear call. Such entries were picked first, then a sample of the others. Calls come from the whole dose curve; as a rule, active = well fitted activation curve with a large enough effect; inconclusive = small, poorly fitted or top-dose-only effect, or another doubt; inactive = no such curve, though single readings can be large or run the other way. Potencies of inconclusive entries are left out as doubtful fits.
test: qHTS of TDP-43 Inhibitors; details: TDP-43 expressing yeast growth rescue, BacTiter-Glo, 24 h; growth rescue (activation): at 46.1 µM (top of the series) unless noted; note: nearly all actives have a fitted effect of over 50% in size; for growth rescue (activation): % of control where 0% means no effect
Summary of the method: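 Yeast expressing TDP-43 (pregrown in raffinose, seeded at OD600=0.02 in galactose medium) exposed to compounds 24 hr at 30 deg C. Growth read by BacTiter-Glo luminescence; rescue of toxicity appears as increased signal.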
Potency is the fitted concentration of half-maximal effect; tags give direction and shape of the fitted curve.

SMILES	Potency	growth rescue (activation)
CC1CCC(NC(=O)c2cc3c(s2)CCCC3)CC1 (stereo unspecified)	inconclusive [activator, partial curve]	
O=C(CSCc1cccc(Cl)c1)NCc1ccc2c(c1)OCO2	inconclusive [activator, single point]	
CCOC(=O)/C=C1\NC(=O)CS1	inactive	
CCc1ccccc1SCc1noc(C(=O)NCC2CCCO2)c1C(=O)O (stereo unspecified)	inconclusive [activator, single point]	
CC(C)(C)c1ccc(NC(=O)COC(=O)c2ccc([N+](=O)[O-])s2)cc1		inconclusive: -81.1% [activator]
CCc1nc2ccc(C(=O)N3CCN(C(=O)c4ccco4)CC3)cn2c1N(C)Cc1cccs1	inactive	
Cc1ccc(C(=O)O/N=C(\c2ccccc2)c2cccnc2)cc1	active: 17.8 µM	
O=C(NCC1CCCCC1)c1cc(-c2cc(F)ccc2OCC2CCCO2)n[nH]1 (stereo unspecified)	inconclusive [activator, single point]	
O=C(NCc1ccccc1)c1nncc(-c2ccccc2)n1	inconclusive [activator, single point]	
COCCn1c(C23CC4CC(CC(C4)C2)C3)n[nH]c1=S	inconclusive [activator, partial curve]	
CCCN1Cc2cccc(C(=O)NCCc3cccc(C)c3)c2C1=O	inconclusive [activator, single point]	
COc1ccc(/C=N/NC(=O)c2nn(-c3ccccc3)c(=O)c3c(N)scc23)cc1	inconclusive [activator, partial curve, poor fit]	
CCc1c(C)c(C#N)c2nc3ccccc3n2c1NCCOC	inconclusive [activator, single point]	
COc1ccc2c(c1)-c1c(ssc1=S)C(C)(C)N2C(=O)CSC1=NCCS1	inconclusive [activator, single point]	
CC1=CC(C)(C)Nc2ccccc21	inactive	
Cc1nc(N)[nH]c(=O)c1CCC(=O)OCC(C)C	inconclusive [activator, partial curve]	
CCOc1ccc(NC(=S)NNC(=O)c2cc(Br)ccc2Cl)cc1	inconclusive [activator, partial curve, poor fit]	
Cc1ccccc1C(=O)Nc1ccc2nc(SCC(=O)N3CCc4ccccc43)sc2c1	inactive	
O=c1c2c3c(sc2nc2n1CCCCC2)CCCC3	active: 12.6 µM	
O=C(c1cc2ccccc2oc1=O)N(Cc1cccs1)Cc1cccs1	inconclusive [activator, single point]	
O=C(C1CCN(S(=O)(=O)c2cccc3cccnc23)CC1)N1CCc2ccccc21	inconclusive [activator, partial curve, poor fit]	
COc1ccnc(Oc2ccccc2)c1C(=O)N/C=N/OCc1ccc(F)cc1Cl	inconclusive [activator, single point]	
COc1ccccc1CNS(=O)(=O)c1ccc(-c2cnc(C3CC3)o2)cc1	inactive	

SMILES	Potency	growth rescue (activation)
CCn1c(C)cc(C(=O)COC(=O)c2ccccc2[N+](=O)[O-])c1C	inconclusive [activator, single point]	
O=[N+]([O-])c1cc(-c2ccc(/C=N/c3nc4ccccn4c3-c3ccco3)o2)ccc1Cl	inconclusive [activator, single point]	
Cc1ccccc1NC(=O)c1sc2nc3n(c(=O)c2c1C)CCC3	inconclusive [activator, single point]	
CCc1ccc(NS(=O)(=O)c2cc(-c3cnc(C4CC4)o3)ccc2C)cc1	inconclusive [activator, single point]	
CCOc1ccc(/C=N/NC(N)=S)cc1	inconclusive [activator, partial curve]	
CCN(CC)S(=O)(=O)c1ccc(Cl)c(NC(=O)COC(=O)C2CCCCC2)c1	inactive	
Clc1ccc(-c2nc3c4cnn(-c5ccccc5Br)c4ncn3n2)c(Cl)c1	inconclusive [activator, single point]	
CN(Cc1ccco1)S(=O)(=O)c1ccc(CN2C(=O)c3cccnc3C2=O)s1	active: 17.8 µM	
COC(=O)CSc1nc2sc3c(c2c(=O)n1-c1ccccc1C)CC(C)(C)OC3	inactive	
Cc1nc2ccccc2nc1OCc1ccccc1	inconclusive [activator, partial curve]	
Cc1ccc(S(=O)(=O)/C=C2\OCc3ccccc32)cc1	inconclusive [activator, partial curve]	
Cc1cc(Br)ccc1NC(=O)c1ccco1	inconclusive [activator, partial curve]	
COc1ccc(-c2ccnc(-c3ccc(O)cc3)n2)cc1	inactive	
CC(C)(C)C(=O)Nc1nnc(COc2ccc(Cl)cc2)s1	active: 11.2 µM	
COc1ccccc1Cn1c(/C=C/c2ccccc2)nc2ccccc21	active: 20 µM	
NC(=O)c1ccc(NC(=O)CN2C(=O)NC3(CCCCCCC3)C2=O)cc1	inactive	
Cc1ccc(N2CCN(c3ncccc3[N+](=O)[O-])CC2)c(C)c1	inconclusive [activator, partial curve]	
COc1ccc(NC(=O)c2nc(C)c(C3(C)CC(c4cccnc4)=NO3)s2)cc1 (stereo unspecified)	inconclusive [activator, single point]	
COc1ccc(Nc2ccc([N+](=O)[O-])cn2)cc1	inconclusive [activator, partial curve]	
O=S(=O)(Nc1cccc(C(F)(F)F)c1)c1ccc(-c2cnc(C3CC3)o2)cc1	active: 25.1 µM	
Cc1c(C)n(C)c2ccc(C(=O)NCc3cccc(F)c3)cc12	inconclusive [activator, single point]	
CCOC(=O)CSc1nnc2n(-c3ccccc3)c(=O)c3c4c(sc3n12)CC(C(C)(C)C)CC4 (stereo unspecified)	active: 35.5 µM	
CSc1nc(Cl)cc(Nc2ccc(O)cc2)n1	inconclusive [activator, single point]	

From PubChem BioAssay AID652104 (National Center for Advancing Translational Sciences (NCATS), 2013)
